What all share (test): protein-binding microarray (PBM)
Settings in all cases: PBM: ~300 nM protein, 6 mM HEPES pH 7.8, 80 mM KCl, 0.5 mM EDTA, 0.5 mM EGTA, 6% glycerol, 35 ng/ul poly-dIdC, 1% milk, 1 h, room temperature; Ap Aiptasia and Nv Nematostella (sea anemones) / Co Capsaspora / Aq Amphimedon (sponge) / Dm Drosophila / Hu human; RHD is the Rel homology domain; high values mean tight binding; most listed sequences are background and not binding sites; double strand, one strand shown

For assay [1], the target named is T1, GST-Ap-NF-kB RHD (UniProt A0A913YAJ5).
T1 sequence: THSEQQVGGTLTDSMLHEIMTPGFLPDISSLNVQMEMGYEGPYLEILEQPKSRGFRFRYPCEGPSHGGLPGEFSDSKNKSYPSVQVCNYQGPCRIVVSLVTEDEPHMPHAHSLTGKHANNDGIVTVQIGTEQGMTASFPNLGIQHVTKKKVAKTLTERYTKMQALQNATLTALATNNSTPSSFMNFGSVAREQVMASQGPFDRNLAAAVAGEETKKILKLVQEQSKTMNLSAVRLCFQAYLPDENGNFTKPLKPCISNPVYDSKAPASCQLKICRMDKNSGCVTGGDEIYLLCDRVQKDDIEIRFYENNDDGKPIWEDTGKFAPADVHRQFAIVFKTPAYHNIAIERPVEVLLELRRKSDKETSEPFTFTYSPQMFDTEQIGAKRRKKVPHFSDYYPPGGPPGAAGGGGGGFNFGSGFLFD

For assay [2], the target named is T2, GST-Nv-NF-kB (Cys allele) (UniProt E5G601).
T2 sequence: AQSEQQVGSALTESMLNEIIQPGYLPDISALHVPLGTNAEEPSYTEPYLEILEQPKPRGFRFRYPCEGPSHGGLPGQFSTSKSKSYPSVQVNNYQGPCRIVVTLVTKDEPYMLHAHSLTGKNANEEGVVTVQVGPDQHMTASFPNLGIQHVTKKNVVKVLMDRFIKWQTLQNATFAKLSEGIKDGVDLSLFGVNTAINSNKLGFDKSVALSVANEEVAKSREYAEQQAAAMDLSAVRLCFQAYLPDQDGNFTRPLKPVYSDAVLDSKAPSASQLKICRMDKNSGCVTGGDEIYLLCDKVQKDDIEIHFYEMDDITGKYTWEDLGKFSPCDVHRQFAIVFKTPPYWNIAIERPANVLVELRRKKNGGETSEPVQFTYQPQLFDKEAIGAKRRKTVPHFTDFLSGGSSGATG

Assay [3] has as its target T3, GST-Co-NF-kB (UniProt F1ARL5).
T3 sequence: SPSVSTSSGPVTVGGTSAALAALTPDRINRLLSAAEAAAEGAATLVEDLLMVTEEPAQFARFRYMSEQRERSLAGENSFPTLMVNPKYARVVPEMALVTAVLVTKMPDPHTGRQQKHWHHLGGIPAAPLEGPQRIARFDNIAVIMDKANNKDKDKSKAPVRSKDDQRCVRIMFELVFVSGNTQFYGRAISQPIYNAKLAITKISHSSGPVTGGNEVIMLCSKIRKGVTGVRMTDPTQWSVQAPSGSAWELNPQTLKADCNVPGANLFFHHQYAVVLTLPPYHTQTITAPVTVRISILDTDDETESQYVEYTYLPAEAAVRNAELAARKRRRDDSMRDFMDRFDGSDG

The target in assay [4] is T4, GST-Dm-Relish (UniProt Q94527).
T4 sequence: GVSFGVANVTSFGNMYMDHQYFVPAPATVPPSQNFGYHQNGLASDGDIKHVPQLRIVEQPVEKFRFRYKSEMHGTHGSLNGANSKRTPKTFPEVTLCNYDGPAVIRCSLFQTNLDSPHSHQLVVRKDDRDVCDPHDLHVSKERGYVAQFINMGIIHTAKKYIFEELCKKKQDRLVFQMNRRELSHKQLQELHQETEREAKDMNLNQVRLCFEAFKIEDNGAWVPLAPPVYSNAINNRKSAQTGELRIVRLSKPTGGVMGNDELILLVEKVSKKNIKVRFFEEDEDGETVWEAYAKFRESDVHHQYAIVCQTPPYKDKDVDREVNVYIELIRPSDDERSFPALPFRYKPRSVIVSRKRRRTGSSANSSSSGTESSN

For assay [5], the target named is T5, GST-Aq-NF-kB (UniProt A9Y5G7).
T5 sequence: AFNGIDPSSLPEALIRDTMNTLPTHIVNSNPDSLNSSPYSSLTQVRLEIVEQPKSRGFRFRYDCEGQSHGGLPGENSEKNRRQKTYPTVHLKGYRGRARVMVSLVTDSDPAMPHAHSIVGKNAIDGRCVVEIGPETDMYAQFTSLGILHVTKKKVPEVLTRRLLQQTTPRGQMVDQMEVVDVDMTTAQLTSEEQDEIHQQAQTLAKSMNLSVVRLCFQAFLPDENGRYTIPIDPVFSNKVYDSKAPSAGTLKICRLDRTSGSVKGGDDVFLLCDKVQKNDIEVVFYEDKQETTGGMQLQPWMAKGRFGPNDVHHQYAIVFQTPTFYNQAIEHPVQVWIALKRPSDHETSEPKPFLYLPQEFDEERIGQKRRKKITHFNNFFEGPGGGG

The entries are a selection whose mix differs from that of the whole data set. The list includes weakly bound sequences.

Regarding “CCGATTAACATCACAGGAAATCCTGATGTTAATCGGGTCTTGATTCGCTTGACGCTGCTG”, the binding signal is 0.0614 z-score in assay [1]; -0.106 z-score in assay [2]; -0.307 z-score in assay [3]; 1.25 z-score in assay [4]; 0.835 z-score in assay [5].

“CCGATTAACATCAACCCTGGAAGTGATGTTAATCGGGTCTTGATTCGCTTGACGCTGCTG”: the binding signal is 0.0267 z-score in assay [1]; -0.872 z-score in assay [2]; 0.53 z-score in assay [3]; -0.0153 z-score in assay [4]; 0.0225 z-score in assay [5].

For the sequence “CCGATTAACATCAGTATACGACGTGATGTTAATCGGGTCTTGATTCGCTTGACGCTGCTG”, the binding signal in assay [1] is -0.252 z-score; in assay [2], -1.02 z-score; in assay [3], -0.395 z-score; in assay [4], -0.776 z-score; in assay [5], -0.75 z-score.

Consider “CCGATTAACATCACAAAATGCCATGATGTTAATCGGGTCTTGATTCGCTTGACGCTGCTG”, for which the binding signal is -0.152 z-score in assay [1]; -0.736 z-score in assay [2]; 0.268 z-score in assay [3]; 0.107 z-score in assay [4]; -0.186 z-score in assay [5].

For “CCGATTAACATCATCGGAATACGTGATGTTAATCGGGTCTTGATTCGCTTGACGCTGCTG”, the binding signal in assay [1] is 0.0423 z-score; in assay [2], -0.485 z-score; in assay [3], -0.0904 z-score; in assay [4], 0.463 z-score; in assay [5], -0.153 z-score.

As to “CCGATTAACATCAAGTACTGGATTGATGTTAATCGGGTCTTGATTCGCTTGACGCTGCTG”, the binding signal in assay [1] was -0.565 z-score; in assay [2], 0.416 z-score; in assay [3], -0.339 z-score; in assay [4], 0.317 z-score; in assay [5], -0.389 z-score.

As for “CCGATTAACATCACGTGACTTATTGATGTTAATCGGGTCTTGATTCGCTTGACGCTGCTG”, the binding signal was -0.314 z-score in assay [1]; -0.491 z-score in assay [2]; 0.0465 z-score in assay [3]; 0.339 z-score in assay [4]; -0.421 z-score in assay [5].

In the case of “CCGATTAACATCAGGAAATTTGATGATGTTAATCGGGTCTTGATTCGCTTGACGCTGCTG”, the binding signal in assay [1] was 0.00155 z-score; in assay [2], 0.642 z-score; in assay [3], -0.108 z-score; in assay [4], 0.318 z-score; in assay [5] it was 0.469 z-score.

For the sequence “CCGATTAACATCAGGAAAATGCCTGATGTTAATCGGGTCTTGATTCGCTTGACGCTGCTG”, the binding signal in assay [1] is -0.682 z-score; in assay [2] it was 0.181 z-score; in assay [3], 0.178 z-score; in assay [4], 0.302 z-score; in assay [5], 0.0724 z-score.
